The campaign covered roughly 360,000 compounds. About 740 (0.21%) were called active. Inconclusive means that the source gave no clear call. Such entries were picked first, then a sample of the others. Calls follow the shape of the dose curve; as a rule, active = well fitted inhibition curve with a large enough effect; inconclusive = small, poorly fitted or top-dose-only effect; inactive = no such curve, though single readings can be large or run the other way. No potency is given beside an inconclusive call; the fits are too rough.
system: Plasmodium falciparum AMA1 (3D7) - RON2 peptide interaction; experiment: qHTS for Inhibitors of AMA1-RON; Towards Development of Antimalarial Drug Lead: Primary Screen; conditions: AlphaScreen AMA1-biotinylated RON2 peptide binding; activity change, negative = inhibition: at 58.2 µM (top of the series) unless noted; also: nearly all actives have a fitted effect of over 45% in size;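 as to activity change, negative = inhibition: 0% = vehicle wells and -100% = peptide control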
In short: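 AMA1 (3D7) with his tag at 25 nM final met compounds first, then biotinylated RON2 peptide at 25 nM; detection used donor plus acceptor beads, 10 µg/mL apiece, read by AlphaScreen after 30 min at room temperature.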
Potency is read from the fitted curve at half-maximal effect; tags tell the direction and shape of the fitted curve.

SMILES	Potency	activity change, negative = inhibition
CCOc1ccc(NC(=O)N(CCN2CCOCC2)Cc2ccc3c(c2)CCCN3CC)cc1	inconclusive [inhibitor, single point]	–
O=C(NCc1ccccc1)c1ccc2c(c1)OCCO2	–	inactive: 3.79%
Cc1ccc(C)c(OCC(=O)N2CCOCC2)c1	inconclusive [inhibitor, full curve, poor fit]	–
Cc1ccc(CN2CCN(/N=C/c3cccs3)CC2)cc1	inconclusive [inhibitor, single point]	–
Cc1ccnc(N2CCC(C(=O)Nc3nnc(C)s3)CC2)n1	inconclusive [inhibitor, partial curve]	–
CCc1ccc(N=c2c([N+](=O)[O-])nn(-c3ccc4c(c3)OCCO4)n2O)cc1	inconclusive [inhibitor, single point]	–
CCC(CC)c1nnc(NC(=O)Cc2c[nH]c3ccccc23)s1	–	inactive: -6.61%
Oc1ccc(/C=N\Nc2nncc(-c3ccccc3)n2)cc1	–	inactive: 91%
CCn1cnc2sc(C(=O)N3CCN(c4ccc(OC)cc4)CC3)c(C)c2c1=O	–	inactive: -4.56%
COc1ccc(NC(=O)CC2C(=O)N(C)C(=S)N2Cc2ccncc2)cc1 (stereo not given)	inconclusive [inhibitor, partial curve, poor fit]	–
O=C(Nc1cc(S(=O)(=O)N2CCCCC2)ccc1N1CCOCC1)c1ccc(F)cc1	inconclusive [inhibitor, single point]	–
Cc1cc(C)cc(OCC(=O)Nc2ccc(N3CCCC3)cc2)c1	inconclusive [inhibitor, full curve]	–
C#CCOCCOCCOCCNc1nc(N2CCN(C(=O)CCCCCCCCCCNC(=O)[C@H](CCCCN)n3cc(C[C@@H](C)CC)nn3)CC2)nc(N2CCN(C(=O)CCCCCCCCCCNC(=O)[C@H](CCCCN)n3cc(C[C@@H](C)CC)nn3)CC2)n1	inconclusive [inhibitor, single point]	–
O=C(Nc1nc(-c2cccs2)cs1)c1cccc(S(=O)(=O)N2CCCCC2)c1	inconclusive [inhibitor, partial curve]	–
Cc1ccc(C(C)(C)C)c(OCCCCN2CCCC2)c1	inconclusive [inhibitor, partial curve]	–
CC(C)(C)NC(=O)C(c1ccc(C#N)cc1)n1c(=O)c(-c2cc3ccccc3[nH]2)nc2ccccc21 (stereo not given)	–	inactive: 41.2%
COc1ccc(CCNC(=O)CCCn2nc(C)c([N+](=O)[O-])c2C)cc1OC	inconclusive [inhibitor, single point]	–
Cc1ccc2c(c1)C(=O)C(=O)N2CCOc1ccccc1	inconclusive [inhibitor, single point]	–
CC(C)c1ccc(C2CC(=O)c3cnc(NC(=O)c4ccco4)nc3C2)cc1 (stereo not given)	–	inactive: 15.4%
COc1cccc(Nc2ccc([N+](=O)[O-])c3nonc23)c1	inconclusive [inhibitor, single point]	–
CCOc1ccc2nc(SCC(=O)Nc3cc4c(cc3C(C)=O)OCO4)[nH]c2c1	–	inactive: -14.9%
CCOC(=O)C1CCN(C(=O)c2cc(S(=O)(=O)N3CCOCC3)ccc2C)CC1	–	inactive: 0%
COc1cc(CNc2ccc(N3CCN(C(C)=O)CC3)cc2)ccc1OCc1ccccc1	inconclusive [inhibitor, partial curve]	–
CC1(C)CC(=O)C=C(c2cccc(OC(=O)c3ccc(Br)cc3)c2)C1=O	inconclusive [inhibitor, partial curve]	–

SMILES	Potency	activity change, negative = inhibition
COc1ccc(OC)c(C=C2CCc3ccccc3C2=O)c1	inconclusive [inhibitor, single point]	–
COc1ccc(C2=CC3=C(Br)C(=O)C(C)(OC(=O)c4ccco4)C(=O)C3=CO2)cc1 (stereo not given)	inconclusive [inhibitor, single point]	–
Cc1cccc(COc2ccc(/C=N/NC(=O)c3nnn(-c4nonc4N)c3CN3CCCCC3)cc2)c1	–	inactive: -1%
Cc1ccc(C(=O)C[n+]2cccc(C(N)=O)c2)cc1	inconclusive [inhibitor, full curve]	–
COC(=O)c1c(N2C(=O)CC(Sc3ccccc3C(=O)O)C2=O)sc(C)c1C (stereo not given)	–	inactive: -1.05%
CN(C)S(=O)(=O)Oc1ccc(C(=O)Nc2cccc(C(F)(F)F)c2)cc1	–	inactive: 0.28%
Cc1cc(Cl)c(S(=O)(=O)NCCC(=O)O)cc1OCC(N)=O	inconclusive [inhibitor, full curve, poor fit]	–
CCOc1cc(CNCc2ccncc2)cc(Br)c1OCc1ccccc1F	–	inactive: 13.8%
COC(=O)COc1ccc(NC(=O)C2CCCO2)cc1 (stereo not given)	inconclusive [inhibitor, single point]	–
CC1=NN(c2ccc(Cl)cc2)C(=O)/C1=C\c1cccn1-c1ccc(S(N)(=O)=O)cc1	inconclusive [inhibitor, single point]	–
CC(C)(C)c1ccc(OCCC(=O)Nc2ccc(N3CCOCC3)cc2N2CCOCC2)cc1	inconclusive [inhibitor, partial curve]	–
O=C(CS(=O)(=O)c1ccccc1)Nc1cccnc1	–	inactive: -9.53%
O=S(=O)(c1ccc2c(c1)CCCN2)N1CCCC1	–	inactive: -6.59%
COc1cc(CNCc2ccc(OC)c3ccccc23)cc(OC)c1OC	inconclusive [inhibitor, single point]	–
O=c1c2ccccc2[nH]c2ccc(O)cc12	–	inactive: -8.1%
COc1ccc(CNCCc2c[nH]c3ccccc23)cc1OC	inconclusive [inhibitor, partial curve]	–
CC(C)CCC1(CCNC(C)c2cccs2)CCOC(C)(C)C1 (stereo not given)	–	inactive: -13.9%
COCc1cc(CN2CCCC2)c(O)c2ncccc12	active: 9.47 µM	–
CC1CCN(c2ccc(/C=N/n3nnnc3N)cc2[N+](=O)[O-])CC1	inconclusive [inhibitor, single point]	–
COc1cc(Br)c(CNc2cc(C)ccc2C)cc1OC	inconclusive [inhibitor, single point]	–
CCCCOc1ccc(CN2CCSCC2)cc1	inconclusive [inhibitor, single point]	–
Cc1cccc(-c2ccc3c(c2)C2CC3CCN2Cc2ccc3c(c2)OCO3)c1 (stereo not given)	inconclusive [inhibitor, partial curve]	–
O=C(Nc1ccccc1)Nc1ncc([N+](=O)[O-])s1	–	inactive: -23.3%
CCN(CC)CCCNC(=S)N(Cc1cccnc1)Cc1cc2cccc(C)c2[nH]c1=O	–	inactive: -11.7%

SMILES	Potency	activity change, negative = inhibition
CN(C)c1ccc(N=Nc2ccc3ncccc3c2)cc1	inconclusive [inhibitor, partial curve]	–
Cc1nn(-c2ccccc2)c(N2CCCC2)c1/C=N/Nc1ccc(S(N)(=O)=O)cc1[N+](=O)[O-]	inconclusive [inhibitor, partial curve]	–
C=CCN(CC=C)CCOc1cccc2ccccc12	inconclusive [inhibitor, single point]	–
Cc1csc(N=Cc2ccc([N+](=O)[O-])o2)n1	inconclusive [inhibitor, partial curve]	–
S=C(Nc1ccc(Cl)cc1)c1nc2ccccc2s1	inconclusive [inhibitor, partial curve]	–
Cc1ccc(NCc2ccc(Cl)nc2)c(NCc2ccc(Cl)nc2)c1	inconclusive [inhibitor, partial curve]	–
CCC(C)c1ccc(S(=O)(=O)N2CCN(CC(O)CN3CCOCC3)CC2)cc1 (stereo not given)	inconclusive [inhibitor, partial curve]	–
CC(=O)N1CCSc2ccc(S(=O)(=O)Nc3ccc(C)cc3)cc21	inconclusive [inhibitor, single point]	–
CN(CCCNC(=O)c1cc2c(Cl)nc3ccccc3c2s1)Cc1ccccc1	inconclusive [inhibitor, single point]	–
O=C(O)c1cccc2cccc(-c3c4ccc(=O)c(O)c-4oc4c(O)c(O)ccc34)c12	inconclusive [inhibitor, partial curve]	–
Cc1cc(NC(=O)CCCC(=O)O)nc(C)n1	–	inconclusive: 0.156% [inhibitor]
CCOc1ccc(N2C(=O)Nc3ccc(Br)cc3C2(O)C(=O)NCCCN(C)C)cc1 (stereo not given)	–	inconclusive: -11.4% [inhibitor]
COc1cccc(CNc2nc(NCc3ccccc3OC)nc3ccsc23)c1	inconclusive [inhibitor, partial curve]	–
CCCOc1ccc(-c2nnn(CC(=O)OCC)n2)cc1	inconclusive [inhibitor, single point]	–
CCc1nc2c(c(=O)[nH]1)C1(CCCC1)Cc1ccccc1-2	inconclusive [inhibitor, partial curve]	–
CCCCOc1cc(NCc2ccccc2)c2ncn(C(C)C)c2c1	inconclusive [inhibitor, single point]	–
O=S1(=O)N(CCN2CC=C(c3c[nH]c4cc(F)ccc34)CC2)c2cccc3c2N1CCC3	inconclusive [inhibitor, partial curve]	–
CN1CCN(C(c2cccc(Cl)c2)c2ccccc2Cl)CC1 (stereo not given)	inconclusive [inhibitor, partial curve]	–
CC1CN(Cc2ccccc2)C(C)CC1O (stereo not given)	–	inactive: -3.65%
O=[N+]([O-])c1cc(Br)c2nsnc2c1N1CCOCC1	inconclusive [inhibitor, partial curve]	–
O=S(=O)(Nc1ccc2nc(C(F)(F)F)[nH]c2c1)c1ccccc1	–	inactive: 5.64%
COc1ccc(NC(=O)COC(=O)CC23CC4CC(CC(C4)C2)C3)c([N+](=O)[O-])c1	inconclusive [inhibitor, partial curve]	–

From PubChem BioAssay AID720542 (National Center for Advancing Translational Sciences (NCATS), 2013)
